In PubChem BioAssay AID1845213 (Molecular Pharmacology Branch, DTP, NCI, 2023):
A number of entries come with more than one value. The list is limited to them. An entry can have further records. Values given together are repeats across runs, samples, wells, individuals or studies. Signs of the kind (2×) stand for listed records that agree. Dates in brackets are months of testing.

Tested on: NCI-H841 complex tumor spheroid viability
Assay: Anticancer human tumor NCI-H841 cell line growth inhibition;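 note: spheroids exposed to compounds for 7 days before readout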;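 for viability, T/C: 100% = DMSO vehicle control wells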
Conditions: for viability, T/C: stronger effect = lower value; for IC50: compound alone
Excerpt: Multicellular complex tumor spheroid response to DNA repair inhibitors in combination with DNA-damaging drugs
This study explores the anticancer activities of DNA-damaging drugs and inhibitors of DNA damage repair, both as single agents and in combinations. Complex tumor spheroids comprised of malignant cells, endothelial cells and mesenchymal stem cells served as an in vitro model for human solid tumors. This model system incorporates physiologically relevant features and patient-derived or established malignant cell lines with clinically relevant genetic alterations from many tumor types. Twenty-six patient-derived or established malignant cell lines were evaluated representing sarcoma, melanoma, small cell lung cancer (SCLC), non-small cell lung cancer (NSCLC), as well as bladder, ovarian and pancreatic cancers. The concentration ranges selected for each drug and investigational agent were based upon clinically achievable concentrations if the clinical Cmax of the agent was known.
Compounds. The drugs and compounds olaparib (NSC753686), talazoparib (NSC767125), berzosertib (NSC777718), elimusertib (NSC800525), nedisertib (NSC802822), VX-984 (NSC792969), AZD-1390 (NSC803789), temozolomide (NSC362856), topotecan (NSC609699), trabectedin (NSC813783), staurosporine (NSC755774), and gemcitabine (NSC613327) were obtained from the National Cancer Institute (NCI) Developmental Therapeutics Program Chemical Repository. The FDA-approved anticancer drug set is available from the Developmental Therapeutics Program at https://dtp.cancer.gov/organization/dscb/obtaining/available_plates.htm. […] The stock solutions were prepared in dimethyl sulfoxide (DMSO, Sigma-Aldrich, St. Louis, MO, cat. D2650) at 400-fold the tested concentration and stored at -70 degrees C. Prior to their use, the stock solutions were diluted in fresh medium and the final DMSO concentration in the assay was 0.25% (v/v). All drugs and investigational agents were tested over a range starting from a high concentration at or near the clinical Cmax and decreasing in half-log increments. If the clinical Cmax for an agent had not been determined, the highest concentration tested was 10 microM.
Cell Lines. The patient-derived cancer cell (PDC) lines: 156681-154-R-J1-PDC, 283228-195-R-J1-PDC, 287954-098-R-J1-PDC, 292921-168-R-J2-PDC, 349418-098-R-PDC, 425362-245-T-J1-PDC, 556581-035-R-J1-PDC, and BL0293-F563-PDC were received from the NCI Patient-Derived Models Repository (PDMR, https://pdmr.cancer.gov). The established cell lines HS-SY-2 (RRID:CVCL_8719), MPNST, and SYO-1 (RRID:CVCL_7146) were obtained from the Sloan Kettering Institute. The alveolar soft parts sarcoma cell line ASPS-1 (RRID:CVCL_S738) was established at the NCI and grown from internal seed stocks. The following established cell lines were purchased from the American Type Culture Collection (ATCC, Manassas, VA): G-401 (ATCC, cat. CRL-1441, RRID:CVCL_0270), SW982 (ATCC, cat. HTB-93, RRID:CVCL_1734), VA-ES-BJ (ATCC, cat. CRL-2138, RRID:CVCL_1785), NCI-H719 (ATCC, cat. CRL-5837, RRID:CVCL_1582), NCI-H196 (ATCC, cat. CRL-5823, RRID:CVCL_1509), NCI-H841 (ATCC, cat. CRL-5845, RRID:CVCL_1595), NCI-H1618 (ATCC, cat. CRL-5879, RRID:CVCL_1480), NCI-H1876 (ATCC, cat. CRL-5902, RRID:CVCL_1503), DMS 114 (ATCC, cat. CRL-2066; RRID:CVCL_1174), NCI-H211 (ATCC, cat. CRL-5824; RRID:CVCL_1529), and SW 1271 (ATCC, cat. CRL-2177, RRID:CVCL_1716). The small cell lung cancer cell line COR-L88 was purchased from Sigma-Aldrich (cat. 92031917-1VL, RRID:CVCL_1141). The non-small cell lung cancer cell lines NCI-H226 (RRID:CVCL_1544) and NCI-H322M (RRID:CVCL_1557) were established at the NCI and grown from internal seed stocks. Pooled donor human umbilical vein endothelial cells (HUVEC, Lonza, cat. CC-2519) and human mesenchymal stem cells (hMSC, Lonza, cat. PT-2501) were purchased from Lonza (Walkersville, MD).
Cell Culture. All cells were maintained in an incubator at 37 degrees C and 5% CO2 with 95% humidity. […]

For `COc1cc2c(cc1O)CCNC21CSC2c3c(OC(C)=O)c(C)c4c(c3C(COC1=O)N1C(O)C3Cc5cc(C)c(OC)c(O)c5C(C21)N3C)OCO4` (stereo not drawn), the viability, T/C (compound alone 0.0003 µM) was 11.6, 42.3, 43.9 (2×), 44.1, 42.6, 39.7, 29.2, 20.4, 45.3%.
With `COc1cc(C)[nH]c(=O)c1CN1CCc2c(Cl)cc(C(OC)C3COC3)c(Cl)c2C1=O` (stereo not drawn) the IC50 was 344 nM [2019-11] and > 10 µM [2019-12].
In the case of `CC[C@@]1(O)C(=O)OCc2c1cc1n(c2=O)Cc2cc3c(CN(C)C)c(O)ccc3nc2-1`, the viability, T/C (compound alone 0.00949 µM) is reported as 62.1, 58.2, 61.5, 64.1, 69.2% [2019-11] and 86.1, 85, 87, 84.2, 84% [2019-12].
With `O=C(c1cc(Cc2n[nH]c(=O)c3ccccc23)ccc1F)N1CCN(C(=O)C2CC2)CC1` the viability, T/C (compound alone 9.49 µM) was 7.6%, 31.3% [2019-11] and 5.24% [2019-12].
For `Cn1nnc2c(C(N)=O)ncn2c1=O`, the viability, T/C (compound alone 31.6 µM) was 105, 102 (2×), 97.6, 96.9, 99.3, 1.65, 101% (2×) and the viability, T/C (compound alone 100 µM) was 101, 100, 95.9, 103, 95.8, 1.49, 99.5, 96.6, 94.9%.
For `Cn1ncnc1[C@H]1c2n[nH]c(=O)c3cc(F)cc(c23)N[C@@H]1c1ccc(F)cc1`, the IC50 was < 9.49 nM, 341 nM [2019-11] and 697 nM [2019-12] and the viability, T/C (compound alone 0.949 µM) was 8.22%, 7.69% [2019-11] and 37.9% [2019-12].
